Measurements reported in the supplement of paper PMC3334620.
Over roughly 33,000 sequences, “E-score (-0.5 to 0.5)” has its median near -0.053; the highest 2% begin near 0.37. This is one part of the list.

What follows are sequences tested against Hap1 (UniProt P0CE41) (assay: PBM E-score (8-mer binding enrichment) (E-score (-0.5 to 0.5)); higher = stronger / more preferred TF binding; most listed sequences are background and not binding sites). Conditions: protein concentration: 200 nM; construct: GST-DNA-binding domain.
Chain of UniProt P0CE41 (P0CE41 whole entry, the tested form may be a part): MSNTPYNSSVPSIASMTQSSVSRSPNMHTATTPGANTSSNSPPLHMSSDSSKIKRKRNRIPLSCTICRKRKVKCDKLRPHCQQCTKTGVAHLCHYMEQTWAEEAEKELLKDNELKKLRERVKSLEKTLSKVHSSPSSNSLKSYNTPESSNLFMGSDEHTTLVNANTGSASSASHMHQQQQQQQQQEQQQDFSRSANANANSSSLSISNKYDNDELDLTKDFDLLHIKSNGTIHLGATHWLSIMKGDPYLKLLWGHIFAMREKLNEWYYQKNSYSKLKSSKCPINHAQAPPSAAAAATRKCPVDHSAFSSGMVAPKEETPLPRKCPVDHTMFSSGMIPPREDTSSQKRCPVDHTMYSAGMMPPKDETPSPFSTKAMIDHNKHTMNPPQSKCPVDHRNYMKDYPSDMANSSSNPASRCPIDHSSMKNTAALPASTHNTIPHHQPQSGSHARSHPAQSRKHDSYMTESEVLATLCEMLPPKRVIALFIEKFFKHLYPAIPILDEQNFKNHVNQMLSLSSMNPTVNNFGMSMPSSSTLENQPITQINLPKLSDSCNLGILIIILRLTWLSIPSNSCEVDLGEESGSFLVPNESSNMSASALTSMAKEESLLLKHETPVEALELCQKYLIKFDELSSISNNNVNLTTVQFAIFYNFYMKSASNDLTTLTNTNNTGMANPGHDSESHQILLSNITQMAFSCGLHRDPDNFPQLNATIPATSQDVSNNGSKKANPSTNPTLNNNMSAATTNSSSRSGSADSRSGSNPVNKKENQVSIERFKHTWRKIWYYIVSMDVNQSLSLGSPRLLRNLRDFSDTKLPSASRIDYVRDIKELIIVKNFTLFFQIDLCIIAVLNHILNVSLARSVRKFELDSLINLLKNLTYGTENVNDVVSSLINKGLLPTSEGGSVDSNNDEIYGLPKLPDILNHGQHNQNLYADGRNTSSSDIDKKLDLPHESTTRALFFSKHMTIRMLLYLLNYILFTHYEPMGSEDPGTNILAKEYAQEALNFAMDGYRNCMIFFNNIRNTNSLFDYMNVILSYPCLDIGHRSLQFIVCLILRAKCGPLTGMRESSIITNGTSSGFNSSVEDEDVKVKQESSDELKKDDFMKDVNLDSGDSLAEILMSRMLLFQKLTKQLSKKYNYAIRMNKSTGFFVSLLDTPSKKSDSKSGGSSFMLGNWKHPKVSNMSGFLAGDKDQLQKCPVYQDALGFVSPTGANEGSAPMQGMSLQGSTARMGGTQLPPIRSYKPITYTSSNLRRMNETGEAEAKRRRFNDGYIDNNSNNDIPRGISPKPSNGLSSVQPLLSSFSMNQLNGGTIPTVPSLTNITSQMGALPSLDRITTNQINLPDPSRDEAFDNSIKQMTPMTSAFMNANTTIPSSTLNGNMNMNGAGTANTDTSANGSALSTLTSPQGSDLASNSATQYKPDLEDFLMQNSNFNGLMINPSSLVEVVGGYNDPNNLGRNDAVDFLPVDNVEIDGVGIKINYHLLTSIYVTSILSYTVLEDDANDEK
Method in brief: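 Full-length yeast transcription factors or their DNA-binding domains, GST-tagged and expressed with PURExpress, were applied at about 100-200 nM to universal all-10-mer Agilent arrays. These arrays had been made double-stranded by primer extension on fresh or once-stripped slides. Detection used fluorescent anti-GST, normalisation used masliner, and E-scores for ungapped eight-base words pooled with reverse complements came from the Universal PBM Analysis Suite.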
In the case of ATTGGTGG, the “PBM E-score” value is reported as -0.0634. In the case of ACGTACAT, the “PBM E-score” value is reported as -0.107. With GTCATAGA the “PBM E-score” value was -0.181. CCGTGAAG was tested, and the “PBM E-score” value was -0.0014. GTTCTTAA was tested, and the “PBM E-score” value was -0.0272. With CTTTCTGC the “PBM E-score” value was -0.0328. In the case of CTTAATCC, the “PBM E-score” value is reported as 0.218. In the case of CATCGGTA, the “PBM E-score” value is reported as 0.234. GCAGTCCC was tested, and the “PBM E-score” value was -0.168. For GGGGTGAA, the “PBM E-score” value was 0.062. CCATGCGC was tested, and the “PBM E-score” value was 0.00249. AATTGGAC was tested, and the “PBM E-score” value was 0.0155. ACGCAGTC was tested, and the “PBM E-score” value was -0.295. In the case of GGCTACGA, the “PBM E-score” value is reported as -0.0678. For AGGACCCA, the “PBM E-score” value was -0.114. In the case of CATCATCC, the “PBM E-score” value is reported as -0.171. With CCTAGTAA the “PBM E-score” value was -0.0872. AATGTACA was tested, and the “PBM E-score” value was -0.0116. With AACTATAG the “PBM E-score” value was -0.102. With CAGAATCA the “PBM E-score” value was -0.129. In the case of GGTGCACC, the “PBM E-score” value is reported as -0.0141. In the case of CTCGACCA, the “PBM E-score” value is reported as -0.187. AAACGGAT was tested, and the “PBM E-score” value was 0.281. For GCACTTAA, the “PBM E-score” value was 0.0697. With GCCGAATA the “PBM E-score” value was 0.3. In the case of ACCTGACT, the “PBM E-score” value is reported as -0.212. For ATTGCTCG, the “PBM E-score” value was 0.137. CCGTCTAC was tested, and the “PBM E-score” value was 0.0105. For CTTTCAAA, the “PBM E-score” value was 0.0259. CACGCCTC was tested, and the “PBM E-score” value was -0.277. With CCGAGGCA the “PBM E-score” value was 0.289. For GAACTCGA, the “PBM E-score” value was -0.192. For CACCAATG, the “PBM E-score” value was 0.00433. With AGAAAAGA the “PBM E-score” value was -0.13. With AGAGTCGG the “PBM E-score” value was 0.1. TCTACGCA was tested, and the “PBM E-score” value was -0.158. For AATAGTGG, the “PBM E-score” value was -0.0956. In the case of TCTAAGCA, the “PBM E-score” value is reported as -0.144. For AAAAATCT, the “PBM E-score” value was 0.0422. In the case of GCAACCGA, the “PBM E-score” value is reported as -0.0187. With GGATGTGA the “PBM E-score” value was 0.0954. For AGAGTTAA, the “PBM E-score” value was -0.105. In the case of CGGTCGGC, the “PBM E-score” value is reported as 0.325. For GAACCCGC, the “PBM E-score” value was 0.181. For AACGAGGA, the “PBM E-score” value was -0.115. For GGAATTCC, the “PBM E-score” value was 0.0978. CGAAGTTC was tested, and the “PBM E-score” value was 0.0889. For AACCCGTG, the “PBM E-score” value was -0.101. For AACTTGCC, the “PBM E-score” value was -0.0505. With ATAATCCC the “PBM E-score” value was 0.326. AAGTCACG was tested, and the “PBM E-score” value was 0.0659. In the case of CAAAATCC, the “PBM E-score” value is reported as 0.222. With ATAACCAA the “PBM E-score” value was -0.182. With AGCCACAA the “PBM E-score” value was -0.0589. With GAAGACAC the “PBM E-score” value was 0.0373. For CCGATGGA, the “PBM E-score” value was 0.157. With CGTTTAAA the “PBM E-score” value was 0.1. In the case of CAGTTTAC, the “PBM E-score” value is reported as -0.209. AGTTTAGC was tested, and the “PBM E-score” value was 0.0835. With AATGCACG the “PBM E-score” value was 0.115. With GACCTCGC the “PBM E-score” value was -0.0792. In the case of CGTAGTAG, the “PBM E-score” value is reported as 0.0126. ATTTCGAG was tested, and the “PBM E-score” value was -0.0565. In the case of ATACGGAG, the “PBM E-score” value is reported as 0.269. With AATAGCAA the “PBM E-score” value was -0.00784. In the case of GAATCGCA, the “PBM E-score” value is reported as 0.0586. In the case of CGTAGCGC, the “PBM E-score” value is reported as 0.118. GCTTCTTA was tested, and the “PBM E-score” value was 0.0677. With ATGCGTTA the “PBM E-score” value was 0.0663. With AAAAGCAA the “PBM E-score” value was -0.175. ATCCCGAC was tested, and the “PBM E-score” value was 0.26. With ATTGGTAG the “PBM E-score” value was -0.0662. GCCGTAGA was tested, and the “PBM E-score” value was 0.161. For GGTAAGTA, the “PBM E-score” value was 0.00751. For ACAAGACA, the “PBM E-score” value was 0.0157. ACCGATAC was tested, and the “PBM E-score” value was 0.371. In the case of AGGGGCAG, the “PBM E-score” value is reported as -0.242. For GTTTGTCA, the “PBM E-score” value was -0.172. For ATGCCTAC, the “PBM E-score” value was -0.191. With AGAATTAG the “PBM E-score” value was -0.21. With TGAAGCAA the “PBM E-score” value was -0.213. For CCTGACTA, the “PBM E-score” value was -0.174. With ATAATCTC the “PBM E-score” value was 0.11. GGTCTTTA was tested, and the “PBM E-score” value was 0.13. For ATGCGAAC, the “PBM E-score” value was 0.026. In the case of AATCGAGA, the “PBM E-score” value is reported as -0.11. ATCGTTAG was tested, and the “PBM E-score” value was -0.108. With AACCTGCT the “PBM E-score” value was 0.0694. CCGCGCTC was tested, and the “PBM E-score” value was 0.199. CATTTACG was tested, and the “PBM E-score” value was -0.0564. With CCATCACG the “PBM E-score” value was 0.0099. GTAGTGCA was tested, and the “PBM E-score” value was -0.117. With ACACGACC the “PBM E-score” value was -0.0549. For AGACTTGG, the “PBM E-score” value was -0.273. With CTGCTCAC the “PBM E-score” value was -0.314. With GAACTGTA the “PBM E-score” value was -0.00641. In the case of CTGTCAAC, the “PBM E-score” value is reported as -0.279. For GGCATCAA, the “PBM E-score” value was -0.244. For CAAATAGG, the “PBM E-score” value was -0.181. For ACCTGCGA, the “PBM E-score” value was -0.166. With GCCGGTAA the “PBM E-score” value was 0.422. CATCTCGA was tested, and the “PBM E-score” value was -0.203. With CCGGCCTC the “PBM E-score” value was 0.182. In the case of AACTAACT, the “PBM E-score” value is reported as 0.0833. For ATAGTTCC, the “PBM E-score” value was 0.262. With GCAGAACC the “PBM E-score” value was -0.0428. CAAATTCG was tested, and the “PBM E-score” value was 0.203. In the case of TCAAAAGA, the “PBM E-score” value is reported as -0.152. For AATTCGCG, the “PBM E-score” value was 0.101. In the case of AGGATAAA, the “PBM E-score” value is reported as -0.06. With ACCAACGC the “PBM E-score” value was -0.0165. AGGAAACA was tested, and the “PBM E-score” value was -0.0825. CTGATGGC was tested, and the “PBM E-score” value was -0.0489. In the case of GTATTCTA, the “PBM E-score” value is reported as -0.104. With ATTGTTAG the “PBM E-score” value was -0.0403. With AATTTGTA the “PBM E-score” value was 0.0347. For TAGCTCGA, the “PBM E-score” value was -0.073. For CCTTCTGC, the “PBM E-score” value was -0.102. With GACGACCA the “PBM E-score” value was -0.0295. AATCAGCA was tested, and the “PBM E-score” value was -0.187. With ACAACATA the “PBM E-score” value was -0.0725. For CTCTAAGA, the “PBM E-score” value was -0.0595. In the case of GACTCAAA, the “PBM E-score” value is reported as -0.155. In the case of AACGCTCA, the “PBM E-score” value is reported as -0.116. CCACTTAG was tested, and the “PBM E-score” value was -0.282. For CCTGCCCC, the “PBM E-score” value was -0.134. In the case of CTATTATC, the “PBM E-score” value is reported as 0.135. For CAAACACC, the “PBM E-score” value was 0.14. For ATTCCGGC, the “PBM E-score” value was 0.37. In the case of CAATCTGC, the “PBM E-score” value is reported as -0.0403. For CAGCGTCC, the “PBM E-score” value was 0.0998. With GATGAGTA the “PBM E-score” value was -0.224. For CAAAACCA, the “PBM E-score” value was -0.122. With ATAAGTGC the “PBM E-score” value was -0.0362. For GAATCTTA, the “PBM E-score” value was -0.0297. For GATTCACA, the “PBM E-score” value was -0.0399. With AAAACCTG the “PBM E-score” value was -0.221. For GTCTCAAA, the “PBM E-score” value was -0.231. With GTGGCTGA the “PBM E-score” value was 0.0292. For GTAGGGAA, the “PBM E-score” value was 0.00784. With GTCTTACA the “PBM E-score” value was -0.195. In the case of ACAGCTTC, the “PBM E-score” value is reported as -0.173. In the case of CGGGATGA, the “PBM E-score” value is reported as 0.195. With CAGTTTAG the “PBM E-score” value was -0.143. In the case of CAAACCTC, the “PBM E-score” value is reported as -0.113. With CCCTCGTC the “PBM E-score” value was -0.094. CGTCCTGA was tested, and the “PBM E-score” value was -0.211. For CTCAAAAC, the “PBM E-score” value was -0.109. ATGGCTAA was tested, and the “PBM E-score” value was -0.052. ATAGCTAA was tested, and the “PBM E-score” value was -0.311. AAACGCGG was tested, and the “PBM E-score” value was 0.21. For AAGATTCT, the “PBM E-score” value was -0.258. GGATGTAC was tested, and the “PBM E-score” value was 0.0389. For GTTCACGA, the “PBM E-score” value was -0.0841. CTCTACAG was tested, and the “PBM E-score” value was -0.311. CAGTTCTA was tested, and the “PBM E-score” value was -0.23. For AGCGACCA, the “PBM E-score” value was -0.158. For CTCTGAAA, the “PBM E-score” value was -0.0778. ATTAAGCC was tested, and the “PBM E-score” value was 0.285. For CGTTAGTC, the “PBM E-score” value was 0.15. ATCTCCCG was tested, and the “PBM E-score” value was 0.263. In the case of ACTAGGAA, the “PBM E-score” value is reported as -0.115. With CCGCCGAC the “PBM E-score” value was 0.187. With GCAAATGC the “PBM E-score” value was -0.193. In the case of ATCGAATC, the “PBM E-score” value is reported as 0.0511. CGGACGTA was tested, and the “PBM E-score” value was 0.443. AATTAGGT was tested, and the “PBM E-score” value was -0.0351. In the case of GCCTCAGC, the “PBM E-score” value is reported as -0.159. For AATTATGC, the “PBM E-score” value was 0.0245. For CATCTATA, the “PBM E-score” value was -0.00933. With GAGCAGTA the “PBM E-score” value was 0.112. With CCGCCCGG the “PBM E-score” value was 0.411.
